Our source for the GI50 and TGI values is PubChem BioAssay (NCI).

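Where inhibition never reached the appropriate level, the endpoint shown equals the highest concentration tested. Otherwise, values were interpolated linearly from a five-concentration, 48-hour dose response in 96-well plates. GI50 marks 50% less growth. TGI marks complete inhibition of growth.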

This assay relates to NCI-H322M lung. Description: NCI-60 cell line screen, 48 h.
In the case of `Nc1nc(-c2cccc([N+](=O)[O-])c2)c(N=Nc2ccc([N+](=O)[O-])cc2Cl)s1`, the GI50 is 0.335 µM and the TGI stood at 9.59 µM.

For `COC1[C@@H]2C[C@H]3C(C)(C)O[C@@](C/C=C(/C)C(=O)O)(C2=O)[C@]32Oc3c(CC=C(C)C)c4c(c(O)c3C(=O)[C@H]12)C=CC(C)(C)O4` (stereo partly drawn), the GI50 is 16.4 µM and the TGI was 31.6 µM.

In the case of `CCCn1cnc2c(c1=N)C(c1ccc(OC)cc1)c1sc3c(C)cccc3c1O2` (stereo not drawn), the GI50 is 0.805 µM and the TGI came out at 36.4 µM.

For `Cc1ccc2c(c1)Oc1nc(N)c(C#N)c(N)c1C2Sc1ccc(F)cc1` (stereo not drawn), the GI50 was 1.51 µM and the TGI turned out to be 2.84 µM.
